Measurements: article PMC12136788
The other results are listed elsewhere or left out.

B1: chr4:41013971:41014072:-|CDS|ENSG00000163697|msi1|total|mutant (ssRNA)
RNA: GGGAGUUCUACAGUCCGACGAUCGCAGGACCCCAACAAAAACCUGAGCCCCACUGCAGUCAUCAACAUAACUUCUGAGAAGUCCGAGGGUAAAGAGCCCCACCCACAGGAUUCCUCGAGCUGUGAGAUUUUACCCUCCCAGCCCAACAGAGGAUUGAGCAUCA
B2: chr15:90501451:90501552:+|3pUTR|ENSG00000140575|msi1_unk|FALSE|overlapping (ssRNA)
RNA: GGGAGUUCUACAGUCCGACGAUCCUGAGCCUCUAUUUUCUUUCUUUGAUGUUUUGAUUCAGUAUUCUUUUAUCAUAAAUUUUUAGCAUUUAAAAAUUCACUGAUGUACAUUAAGCCAAUAAACUGCUUUAAUGAAUAACAAACCAACAGAGGAUUGAGCAUCA
B3: chr14:106324253:106324560:-|CDS|ENSG00000211952|control|control|control (ssRNA)
RNA: GGGAGUUCUACAGUCCGACGAUCCUAUUAUAGUGGGAGCACCUACUACAACCCGUCCCUCAAGAGUCGAGUCACCAUGUCAGUAGACACGUCCAAGAACCAGUUCUCCCUGAAGCUGAGCUCUGUGACCGCCGUGGACACGGCCAACAGAGGAUUGAGCAUCA
B4: chr4:143221337:143221438:+|3pUTR|ENSG00000170185|unk|total|mutant (ssRNA)
RNA: GGGAGUUCUACAGUCCGACGAUCUUGAAAGGUAACCGAUUUUCCAGAAGUAAAAUCUGAUGGUUCUAAAUCAAUCAAUGUGACCGUUCAUUUUUAACUCUCCGAAGAAUUCAGAGGAAAUUAACCCAGCUAAGUAAAAAAUCUCAACAGAGGAUUGAGCAUCA
B5: ENSG00000104643:stop:overlap|stop_codon|ENSG00000104643|stop_codon|NA|stop_codon (ssRNA)
RNA: GGGAGUUCUACAGUCCGACGAUCAUAUUCCUGGAAUGGAGGAAUGCUUGAAUAUAGCCAGUUCCAUUGAGAAUCCCUCCUGCUAGCCCUCCACCCUUCCCCGAAUACAUCUGGACACGAUUUGCAUUGUCUACUCUGGACUCCCAACAGAGGAUUGAGCAUCA
B6: chr16:70160055:70160156:+|3pUTR|ENSG00000090857|msi1|total|mutant (ssRNA)
RNA: GGGAGUUCUACAGUCCGACGAUCUUGUGCUCACCACGAAGGAUGGUCUCUGCCUUCUCUUGUCGGUGUAUGCCAUCUGAACCCCGGAACACAAAGUAUAUUGGCCUCAAACGGAGACCCAGGGUUGCCAGUUUUCCGUGGGCCCAACAGAGGAUUGAGCAUCA
B7: chr8:18872320:18872424:-|CDS|ENSG00000156011|unk|FALSE|bound_elsewhere (ssRNA)
RNA: GGGAGUUCUACAGUCCGACGAUCGCCAGAAUCAUUUCCGGAACAUUACAGGCUACAAAGGUACUGGACCAAGAUGCUGUUUCUAGUUUUUCAGUUCAGCAGGUGGAAAAAGAGCUGGACACUGCCAGUCGUAAAACACAGAGACAACAGAGGAUUGAGCAUCA
B8: chrX:55006554:55006655:+|CDS|ENSG00000169188|unk|total|mutant (ssRNA)
RNA: GGGAGUUCUACAGUCCGACGAUCAGGGCGCAAGUGGAUGGACAGCUUGCUCAGUAACUUGGGGUGCCAGUCUGCCUCUCAUGCCGGGCCCUUCAUCGACCGCUACCGCUGCUUCCAACCAAAGCAGGAGGGGGCCUUCACCUGCAACAGAGGAUUGAGCAUCA
B9: chr17:3662948:3663056:-|3pUTR|ENSG00000213977|unk|FALSE|unique (ssRNA)
RNA: GGGAGUUCUACAGUCCGACGAUCAGUUUGAUACAAAAUGUUUUUAUCGUACUCUUUGGAGAUGCCCAUUCUACUUUUGAAUUUAGCUUUUACUAAUUCGCAUCUGGAAGCUCAGCAAGUGCACAAGCCUUACUUUGGUUACCGCAACAGAGGAUUGAGCAUCA
B10: chr13:75481370:75481471:-|CDS|ENSG00000136111|msi1|total|mutant (ssRNA)
RNA: GGGAGUUCUACAGUCCGACGAUCCUCAGCGCGCCCUUCCUGCGUUGCGUCCCCGCGCCGGGCGCUGGGGCCUCGGGGGGCACCCGUCCGUCGGCCACGCAGCCCAACCCGGCGGUAUUCAUCUUCGAGCACAAGGCGCAGCAUCAACAGAGGAUUGAGCAUCA
B11: chr10:128098031:128098192:-|3pUTR|ENSG00000148773|msi1|FALSE|unique (ssRNA)
RNA: GGGAGUUCUACAGUCCGACGAUCCAUCUUCAUUUACUUUCCACUUUGCCCCCUGUCCUCUCUGUGUUCCCCAAAUCAGAGAAUAGCCCGCCAUCCCCCAGGUCACCUGUCUGGAUUCCUCCCCAUUCACCCACCUUGCCAGGUCAACAGAGGAUUGAGCAUCA
B12: chr10:15076158:15076259:-|3pUTR|ENSG00000176244|unk|total|mutant (ssRNA)
RNA: GGGAGUUCUACAGUCCGACGAUCAGAUCCCUUAAGAUAAAUAUCCCCCAAAACAGUGUACCUCUAUUCCCUGCAUAAAAAUUCCGAUUUGGAAUGGUAUGACCAGAGGAACCGAUCCACUUCAUGUUACUACAACAACAAAACCAACAGAGGAUUGAGCAUCA
B13: chr3:69105919:69106020:+|3pUTR|ENSG00000144746|msi1|FALSE|bound_elsewhere (ssRNA)
RNA: GGGAGUUCUACAGUCCGACGAUCGUGCUGCUUCUGAUUUUUCUUGCAUUUUAAAUUCUCAGCCAACCUACAGCCAUGAUCUUUAGCACAGUGAUAUCACCAUGACUUCACAGACAUGGUCUAGAAUCUGUACCCUUACCCACACAACAGAGGAUUGAGCAUCA
B14: ENSG00000124766:be:win_351|CDS|ENSG00000124766|bound_else_gene|NA|bound_elsewhere_windowed (ssRNA)
RNA: GGGAGUUCUACAGUCCGACGAUCCAAGCACAUGGCUGACUACCCCGACUACAAGUACCGGCCCAGGAAGAAGGUGAAGUCCGGCAACGCCAACUCCAGCUCCUCGGCCGCCGCCUCCUCCAAGCCGGGGGAGAAGGGAGACAACAACAGAGGAUUGAGCAUCA
B15: ENSG00000107863:be:win_501|CDS|ENSG00000107863|bound_else_gene|NA|bound_elsewhere_windowed (ssRNA)
RNA: GGGAGUUCUACAGUCCGACGAUCGUUUACAAAGGAUGUCACAGCACUGGCAUAUUCUCAAGAUGCCUACCUGAAAGGCAACGAAGCUUAUAGCGGCAAUGCCCGCAAUAUACCUGAACCUCCACCAAUCUGCUAUCCCUGGCUCAACAGAGGAUUGAGCAUCA
B16: chr12:108522223:108522324:-|3pUTR|ENSG00000075856|msi1|FALSE|unique (ssRNA)
RNA: GGGAGUUCUACAGUCCGACGAUCUCAGUCGGGUUUUCUAUAUUUUUUUAACUUAACAUUUUUUAAUAUAACCGAUUAAAAAGUAGACAGAACAGUAAAAUAAACUCCUGUGUGCCUACCAUUCAGCUUCCAGCAUUCCUCAACCAACAGAGGAUUGAGCAUCA
B17: chr17:58301230:58302447:-|three_prime_utr|ENSG00000005379|control|control|control (ssRNA)
RNA: GGGAGUUCUACAGUCCGACGAUCGGGAAUCAAAGAGCCUUGGUGAAGGUCAGAGCUAAAUGGCUCCUUAAGGAUGAACUCUCUAGAGAAGCACCUUCCUCCUACAGGAGGGGAAACUGAGCCCACAGUGAGUAUGUAACUUGACAACAGAGGAUUGAGCAUCA
B18: chr11:113276125:113276317:+|3pUTR|ENSG00000149294|msi1|total|mutant (ssRNA)
RNA: GGGAGUUCUACAGUCCGACGAUCGUCCGUGUAAAACCGCUGCCUUUUAUUUUUUAAGGUAACAAAUACCACCCCGAGGCCGGCCGGAUCAUCCCACGCUUGCUUCCGCACAGGACAACUUUACAAAACAUGAUUGUUUACAGCCAACAGAGGAUUGAGCAUCA
B19: chr14:53039561:53039662:-|3pUTR|ENSG00000100523|unk|FALSE|unique (ssRNA)
RNA: GGGAGUUCUACAGUCCGACGAUCUCAAACUAUAUUUUUGUUACAGCAAACUACAUUCCAUUUGCCUUUAAAUGCUUGCAUUUUAGUUAUUGUACUGGCUACCUGUUUUUGUCUGCCCAGCAUCCUGUUUCCCCUCCUUUUGGACAACAGAGGAUUGAGCAUCA
B20: chr12:54395726:54395827:-|3pUTR|ENSG00000161638|msi1_unk|total|mutant (ssRNA)
RNA: GGGAGUUCUACAGUCCGACGAUCAAGAACACUAACUAUGCAUGGUGCCCCAGGACCAGCUCAGGACAGAUGCCACACAAGGACCGAUGCUGGCCCAGGGCCCAGAGCCCAGCUCCAAGGGGAAUCAGAACUCAAAUGGGGCCACAACAGAGGAUUGAGCAUCA
B21: ENSG00000136451:be:win_3251|3pUTR|ENSG00000136451|bound_else_gene|NA|bound_elsewhere_windowed (ssRNA)
RNA: GGGAGUUCUACAGUCCGACGAUCCUUAGUGUAAAAUAAUUUUAUAAAUGAUCUUUUGUACUUUAGGACAUUAAAUUGUACAACUUUUGUAUAUAUAAAAGCUUAGGAACUUUCUGUUUAGCAGGAAGGCAACACAUUCCUACACAACAGAGGAUUGAGCAUCA
B22: chr11:130877263:130877364:-|3pUTR|ENSG00000120451|msi1|FALSE|unique (ssRNA)
RNA: GGGAGUUCUACAGUCCGACGAUCCAGUCCUUUAACAACACCAGCAUGAAGGCAAAGGUGUUUUGUCAGACUGCAACAUCUAUUAGAAAGGCAAGGCAACUGGGAAUUGCUGGAGAAGGAUAAAUCAGGAGGAAUUGCUGGUAGCAACAGAGGAUUGAGCAUCA

These binders were tested against MSI1 full-length (mouse, UniProt Q61474 1-362) (assay: nsRBNS (natural sequence RNA bind-n-seq); RBNS binding buffer (assumed for nsRBNS): 25 mM Tris pH 7.5, 150 mM KCl, 3 mM MgCl2, 0.01% Triton X-100, 500 ug/ml BSA, 20 U/ml SUPERase-In, 4 C; UNK is unkempt and MSI1 is Musashi-1; names of the RNAs are library labels; protein concentration not given here; high values mean tight binding).
Chain of UniProt Q61474 (Q61474 whole entry): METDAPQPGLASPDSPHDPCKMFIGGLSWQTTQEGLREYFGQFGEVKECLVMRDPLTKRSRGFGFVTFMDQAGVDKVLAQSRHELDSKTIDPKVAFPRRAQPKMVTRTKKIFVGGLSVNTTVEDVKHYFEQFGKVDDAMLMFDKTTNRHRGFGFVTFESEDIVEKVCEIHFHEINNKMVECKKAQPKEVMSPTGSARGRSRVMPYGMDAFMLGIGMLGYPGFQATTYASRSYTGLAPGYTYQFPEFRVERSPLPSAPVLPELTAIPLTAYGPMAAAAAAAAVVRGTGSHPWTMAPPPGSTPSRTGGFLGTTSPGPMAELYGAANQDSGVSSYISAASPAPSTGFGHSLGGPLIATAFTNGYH
Binder B1 has a binding signal of 0.542 enrichment R. B2 showed a binding signal of 0.987 enrichment R. In the case of B3, the binding signal is reported as 0.569 enrichment R. In the case of B4, the binding signal is reported as 0.392 enrichment R. Work on B5 yielded a binding signal of 3.02 enrichment R. For B6, the binding signal was 0.294 enrichment R. B7 gave a binding signal of 0.455 enrichment R. In the case of B8, the binding signal is reported as 0.438 enrichment R. With B9 the binding signal was 0.695 enrichment R. In the case of B10, the binding signal is reported as 0.239 enrichment R. Work on B11 yielded a binding signal of 1.16 enrichment R. B12 gave a binding signal of 0.407 enrichment R. For B13, the binding signal was 0.576 enrichment R. In the case of B14, the binding signal is reported as 0.392 enrichment R. Work on B15 yielded a binding signal of 0.392 enrichment R. Work on B16 yielded a binding signal of 1.08 enrichment R. Binder B17 has a binding signal of 0.992 enrichment R. B18 was tested, and the binding signal was 0.624 enrichment R. Binder B19 has a binding signal of 1.58 enrichment R. B20 gave a binding signal of 0.515 enrichment R. Binder B21 has a binding signal of 10.7 enrichment R. B22 was tested, and the binding signal was 1.33 enrichment R.
